The supplement of paper PMC11417369
The list shows a part of the results.

system: PfAP2-HC AP2 domain (GST-tagged); test: gcPBM binding intensity (ln(normalized median fluorescence intensity)); higher = stronger DNA binding
Method in brief: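 Binding intensity is defined as the maximum Masliner-normalised natural-log median intensity across replicate spots for either probe orientation. It was measured on an Agilent 4 × 180k array of primer-extended double-stranded 36-bp intergenic genomic probes and negative controls, to which GST-tagged P. falciparum DNA-binding domains made in E. coli were applied for 1 h in 1× PBS with 1% milk, 0.2 mg/ml BSA, 0.5% salmon testes DNA and 0.03% Triton X-100. Detection was by Alexa488 anti-GST antibody and scanning at 488 nm.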

Sequence	gcPBM binding intensity (ln)
TACCTTATGTTATATACACACATATAACATAATATA [CACACA_site6741]	9.72
AAATGACTATATAAAAGTACTAGAAAGTATAAATAT [XGTACX_site944]	9.82
CATCCGTTGATATATGCATGCATATTGTTATTACCA [TGCATGCA_site868]	9.86
AAAATACACGATAGTTGTACATTAAATGTATACAAT [XGTACX_site360]	9.88
TCTAATACACAATGTTGTACATATTAATATATATGT [XGTACX_site2931]	9.73
ATCATTCTTAAACCGTGTACTTATTATTTTTTTTTT [XGTACX_site2798]	9.77
TATAAAGATATAAATGCACACGTATTAAAAAAAAAA [CACACA_site8223]	9.89
GCATATATGGATATATAGGTATATATAAATGCAATA [GTGCAC_negctrl_site24]	9.76
CCTCTCATTTTATATAGTACATATTTCAAAAAAAAA [XGTACX_site488]	9.27
AGGAGGATAGTTCACAGTACCCAGTAACTCTACGGA [XGTACX_site1997]	9.48
ATATAAAAAAAAAATTGTACAAAAATATATACATAT [XGTACX_site469]	9.71
GCATATTTTCCCTGTGAATAAAGTTTTTTTTTTTAT [XGTACX_negctrl_site87]	9.69
AAGGTATAGAAACACACACACGTGAATATAGTTTAA [CACACA_site5109]	10.2
TTCTTAAATATATTCAACATACATAATATATAATCT [CACACA_negctrl_site1806]	9.51
TATATATGTATATATTGTACTTTAAGACAAATATAT [XGTACX_site1052]	9.51
CGTTATATAATAAAGGTGCATAGATATATCATTATA [GTGCAC_site9774]	9.56
TATATAACATATATATGTACACATAATATCAGATTT [XGTACX_site1041]	9.71
TTCACTAATAAATACGCACACATATACATATATATA [CACACA_site1383]	9.9
TTTCAAATATATATAGCACACAAGGTATAATATAAA [CACACA_site877]	9.74
TAATTTTTTTTAAACACACACATTACATTCAAAAAT [CACACA_site127]	10.1
CTAATATAGGTATGCACACACAATATGTACATATTT [CACACA_site7558]	10.4
TTTTAATTAGTACAAACACACATATACACCCAAAAA [CACACA_site5422]	10

Sequence	gcPBM binding intensity (ln)
ATATAAAAAAGGGAGGTAAATGAATGTGAAACCCAA [GTGCAC_negctrl_site359]	9.7
TAATTGTAGACATGCACACACAAATATTATATATGT [CACACA_site845]	10.2
TATTTTTTACATTCGTGTACGCATTTTTGTGAATTT [XGTACX_site5339]	9.79
ACAAAAATATTTGTAAAAAGAAATATAAATAAATAA [TGCATGCA_negctrl_site357]	9.49
AAAAATAGAGCAGCTCTCATATTTTTATGTGCAATA [CACACA_negctrl_site837]	9.53
AGGATATATTATATGTACACACACATATAAGGGATT [GTGCAC_negctrl_site47]	10.2
GCATTTATGAAAAATGTACACACATCAAATGCTTAT [CACACA_site9347]	9.77
TATTACACACAATATTGTACACATAGGAAAAATATT [XGTACX_site1726]	9.85
TTTTTTATTTTTTGTTATATTTATAATAATTTATGA [XGTACX_negctrl_site260]	9.59
ATATATATATATGTAGTGCATTTTATATATAATATT	9.76
TACTTTACACATATTTTTAATTATTCTGAATTCAAA [GTGCAC_negctrl_site253]	9.51
TAAAAGTTCACCTGTACACACATATATATATGTACA [CACACA_site1707]	9.8
AAGAAATAAATACATACACACATATATATATATATA [CACACA_site3362]	10.3
ATAAGTAATATAATATGTACATATATATATATATAT [XGTACX_site3818]	9.93
TATATATTGTTATAATGTACATAATATTTTATCTGC [XGTACX_site4983]	9.63
ATGCAAAATAAAGAAGCACACAAAAATGAAATATAT [CACACA_site9217]	9.86
AGAATAATTTTATCGGTACACACTGTATGCATAATA [CACACA_site374]	9.76
GGAAATTTCAATATTTGTACATATATATATATATAT [XGTACX_site3222]	9.71
TACAGATATTTTATTTCACACATTTTATCATTTTCT [CACACA_site5701]	9.75
TTCAAAAAAGGAAAGTTGCACTTGATACGCTTATTA [GTGCAC_site9411]	9.39
TTCTATATTTCTTTTTGTACATATAAATTCAAATAA [XGTACX_site2476]	9.64
ATATAAAATAATACATGTACATATTATATATATATA [XGTACX_site1082]	9.86

Sequence	gcPBM binding intensity (ln)
TATATACGCATTTTTATACACACTTGTTTTATAAAA [CACACA_site727]	9.72
ATTTTTTTTTCTTAATGTACATACCAAAAAGAAAGA [XGTACX_site5471]	9.39
TATAATATATTTTAATGTACGTACATCCCGATTAAT [XGTACX_site7651]	9.58
TTTGTCTGCATACGCACACACGTGTACCATCTTATG [CACACA_site4784]	10.2
TATTAATATATATGTTGTACAAGTTTTTTTTTTTTT [XGTACX_site5865]	9.63
GATAAAATATGTTGCCGTACATATTCATATACTTAA [XGTACX_site4776]	9.67
AAATATTAAATGACAAAAAAAAAAAAAAAAGGGGTT [CACACA_negctrl_site951]	9.85
TTCTTTATTTTTTCTACACACATTATATATTCAAAG [CACACA_site5866]	9.88
TATTTTGAAAATAAAAGTACAAATTTTATATTTAAA [XGTACX_site3238]	9.07
TATTTATATTCATAATGTACATTCAATTATTGTTTT [XGTACX_site4191]	10.1
TTTCCATTTTCTCTATGTACATAAAAATGAGATAAA [XGTACX_site5689]	9.31
CACACGCACGGACACACACACAAAAAAAAAAAGAAA [CACACA_site6378]	10.3
AAGACCATATGAATAATGCACACGTTTTAAAATATT [CACACA_site2323]	9.76
AAATAAATCTTATGCACACAAATAATTAATGAAACA [CACACA_site5011]	9.89
TCTTTGTACTTTCACATGTACACCCAAATGGAAATT [CACACA_negctrl_site1442]	9.68
ATATTTATGGAATATACACACATGTATAATTACATA [CACACA_site7045]	9.72
AGGACTAATATTTGAACACACATATAATAAATACAT [CACACA_site6068]	9.96
GTTTGGTGGTGTTTTGGTACGTACGGGGGTGTATGT [XGTACX_site1211]	10.1
TGGAAAATAAAGTACGCACACAAAAATTCTCTTCAT [CACACA_site2327]	10.2
TTCAAACATATTAATTGTACATACAACAAAACCATG [XGTACX_site5149]	9.58
AATATATTTTAGAGTTTTATATATTTTATGCATATA [GTGCAC_negctrl_site710]	9.61
ATATTATTTTATGCTACACACATTTTCTCTTATAAA [CACACA_site943]	9.89

Sequence	gcPBM binding intensity (ln)
GGAATTTTTATTCGAAGTACTGTTGTGAGTAATAAA [XGTACX_site8599]	9.53
TAAATGTTAAAATTCACACAAATATGTGCGGAATAT [CACACA_site5055]	9.61
TTTGACTAAATTAAATATTAAAGTATGGATTATTCT [CACACA_negctrl_site833]	9.4
ACCCATTTGATAATAATGCACACCACATATATTTAT [CACACA_site3061]	10.1
TGCAAGGAACAACACACACACACATAAATGTATATA [CACACA_site8149]	11.4
ATATATAATATATACACACACATGTATATATAAATA [CACACA_site1968]	9.95
AAAAAAAAAAAACACACACACACATTCAATATAAAA [CACACA_site40]	10.4
ATATGTATTTATGTATTTATGTATTTTTATATTTTT [CACACA_negctrl_site595]	9.85
AATACGCATTTTAGTACACACTTAAAAAGTTATTTT [CACACA_site7401]	9.67
AATTATATTAATTCTTCATTACATTTTAAAATATTA [XGTACX_negctrl_site510]	9.45
TTCGTTATATTTTGATGTACTGATTCATATATATAT [XGTACX_site1835]	9.82
TGCTATTATTTATGTACACACCAATTTATTTATAAT [CACACA_site6029]	9.89
TTATAATATAAAAATAAATAAATAAATAAATAAATA [CACACA_negctrl_site1587]	9.5
AGAGAATATTTCCACACATGCAAATGTTATATGTAA [TGCATGCA_site282]	9.61
ATTGATTTTTAATATACACACATAAGGACCACAAAA [CACACA_site4344]	10.2
TATACATATGTATGCACACATACATACACATAGAAT [CACACA_site3480]	9.94
TATATTATTTAAAAAGTGCAGTTACAAGATGAACCT [GTGCAC_site9641]	9.46
TAATATTTATTCTATTGTACATAAAATATATATATA [XGTACX_site7132]	9.47
GGAAAGACATTACACAGTACCCAGGAAATCTACGGA [XGTACX_site2002]	9.8
TCAACATTTAAAAATAGTACTCATAAACCTTTCGAA [XGTACX_site4111]	9.42
ATTATATATGTATAAATATGCTATATATATATATAT [GTGCAC_negctrl_site430]	9.65
ATAAATAAAAAACACACACACACACCCAAAAAAAAA [CACACA_site2624]	10.7
